PMC6919601, “Identification of Plasmodium dipeptidyl aminopeptidase allosteric inhibitors by high throughput screening” (PLoS ONE, 2019)
The whole screen tested about 110,000 compounds, of which about 230 (0.21%) showed an effect of 50% or more. This is one part of the list.

What follows are compounds tested against DPAP1 (Plasmodium falciparum, UniProt Q8IIJ9) (assay: primary screen, percent inhibition; read by cleavage of a fluorogenic dipeptide substrate; higher = more effect of the substance).
Sequence of DPAP1 (Q8IIJ9 whole entry, looked up): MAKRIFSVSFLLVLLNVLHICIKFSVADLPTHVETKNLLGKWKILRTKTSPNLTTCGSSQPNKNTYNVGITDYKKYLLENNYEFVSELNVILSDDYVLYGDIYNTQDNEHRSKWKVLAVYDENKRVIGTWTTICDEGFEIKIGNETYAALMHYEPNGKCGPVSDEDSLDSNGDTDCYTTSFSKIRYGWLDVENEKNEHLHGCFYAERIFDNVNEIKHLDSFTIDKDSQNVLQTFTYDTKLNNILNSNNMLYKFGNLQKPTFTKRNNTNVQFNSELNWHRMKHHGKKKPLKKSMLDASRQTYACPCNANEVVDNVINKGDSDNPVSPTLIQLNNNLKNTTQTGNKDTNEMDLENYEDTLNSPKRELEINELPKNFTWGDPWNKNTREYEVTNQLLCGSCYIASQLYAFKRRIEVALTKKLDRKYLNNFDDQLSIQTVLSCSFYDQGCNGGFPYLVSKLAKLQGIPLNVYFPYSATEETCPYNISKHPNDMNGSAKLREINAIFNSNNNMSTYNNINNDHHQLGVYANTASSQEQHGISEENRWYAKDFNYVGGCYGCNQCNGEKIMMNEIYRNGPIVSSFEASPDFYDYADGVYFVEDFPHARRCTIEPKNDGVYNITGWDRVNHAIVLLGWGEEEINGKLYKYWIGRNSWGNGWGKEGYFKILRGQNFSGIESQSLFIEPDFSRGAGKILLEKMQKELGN
Design: species or system P. falciparum D10 trophozoite lysates; single well
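Also: 30 min substrate incubation versus DMSO and 10 µM JCP410 controls.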

Question: `c1cc(-c2nc3ccncc3[nH]2)ccn1` was tested. Which “% Inhibition @ 10 uM” value did it give?
Answer: -2.63%

Question: Which “% Inhibition @ 10 uM” value does the source give for `Nc1nc(-c2cccnc2)nn1C(=O)c1ccccc1Cl` here?
Answer: 2.31%

Question: `O=C(/C=C/c1ccco1)NCc1ccccc1C(F)(F)F` was tested. Which “% Inhibition @ 10 uM” value did it give?
Answer: -5.03%

Question: `CCOC(=O)c1cc2c(=O)n3ccccc3nc2n(C2CCCCC2)/c1=N\C(=O)c1ccccc1F` was tested. Which “% Inhibition @ 10 uM” value did it give?
Answer: -3.78%

Question: `COC(=O)/C(C#N)=C/c1c(Oc2ccccc2)nc2c(C)cccn2c1=O` was tested. Which “% Inhibition @ 10 uM” value did it give?
Answer: 0.315%

Question: How did the “% Inhibition @ 10 uM” value turn out when `O=C(NCc1cccnc1)c1ccc(COc2ccc3c(c2)CCC3)o1` was run?
Answer: -1.33%

Question: How did the “% Inhibition @ 10 uM” value turn out when `COc1ccc(C(=O)N2CCN(c3ccccc3F)CC2)cc1` was run?
Answer: -4.35%

Question: For `CCc1ccc(/C=C2\Cc3ccccc3C2=O)cc1`, which “% Inhibition @ 10 uM” value is on record?
Answer: -1.31%

Question: `O=C(CN(C1CCCCC1)S(=O)(=O)c1ccc(Br)cc1)NCc1ccccn1` was tested. Which “% Inhibition @ 10 uM” value did it give?
Answer: 3.72%

Question: For `COc1cccc(CN2CCC(Cc3ccccc3)CC2)c1OC`, which “% Inhibition @ 10 uM” value is on record?
Answer: 2.47%

Question: For `CCN(CC)C(=O)CN(C)S(=O)(=O)c1cccc2nsnc12`, which “% Inhibition @ 10 uM” value is on record?
Answer: -3.23%

Question: How did the “% Inhibition @ 10 uM” value turn out when `Cc1noc(/C=C/c2ccccc2F)c1S(=O)(=O)N1CCC(C(=O)N2CCCC2)CC1` was run?
Answer: 4.88%

Question: For `COc1ccccc1-c1cc(-c2ccc(Br)cc2)nc(O)n1`, which “% Inhibition @ 10 uM” value is on record?
Answer: -1.5%

Question: How did the “% Inhibition @ 10 uM” value turn out when `CCOC(=O)c1c(OCC)[nH]c2c1cc(O)c1ccccc12` was run?
Answer: 1.12%

Question: For `NC(=O)C1CCN(C(=O)CN(CC(=O)N2CCC(C(N)=O)CC2)Cc2ccco2)CC1`, which “% Inhibition @ 10 uM” value is on record?
Answer: 0.628%

Question: How did the “% Inhibition @ 10 uM” value turn out when `COCc1nn2cc(-c3ccccc3)nc2s1` was run?
Answer: -4.54%

Question: With `O=C(NCc1cccc(Cl)c1)C1CCCN(S(=O)(=O)N2CCOCC2)C1` (stereo not shown) as the compound, how does the “% Inhibition @ 10 uM” value read?
Answer: 1.17%

Question: Which “% Inhibition @ 10 uM” value does the source give for `CCc1ccc(OCc2nnnn2-c2ccccc2)cc1` here?
Answer: 0.569%

Question: Which “% Inhibition @ 10 uM” value does the source give for `COC(=O)c1cc(-c2ccc(C)cc2)nc2ccc(Cl)cc12` here?
Answer: 3.66%

Question: With `COc1cc(/C=C2/SC(=O)N(CC(=O)N3CCN(c4ccccc4)CC3)C2=O)ccc1O` as the compound, how does the “% Inhibition @ 10 uM” value read?
Answer: 2.76%

Question: How did the “% Inhibition @ 10 uM” value turn out when `CCCCCCNC(=O)C1CCCCC1C(=O)O` (stereo not shown) was run?
Answer: 2.01%

Question: With `N#CC1=C(N)OC2=C(C(=O)CCC2)C1c1ccc(N2CCCC2)cc1` (stereo not shown) as the compound, how does the “% Inhibition @ 10 uM” value read?
Answer: -2.87%

Question: How did the “% Inhibition @ 10 uM” value turn out when `CC(C)(C)NC1=N/C(=C\c2ccccc2)C(=O)N1c1ccc(Cl)cc1` was run?
Answer: -1.07%

Question: Which “% Inhibition @ 10 uM” value does the source give for `CCc1ccc2nc(NC3=NCN(Cc4ccc(OC)cc4)CN3)nc(C)c2c1` here?
Answer: 2.1%

Question: For `Cc1ccccc1NC(=O)CN1C(=O)N/C(=C\c2ccc(N3CCOCC3)c(F)c2)C1=O`, which “% Inhibition @ 10 uM” value is on record?
Answer: -0.473%

Question: `c1ccc(-n2ncc3c(NC4CCCCC4)ncnc32)cc1` was tested. Which “% Inhibition @ 10 uM” value did it give?
Answer: 8.97%

Question: Which “% Inhibition @ 10 uM” value does the source give for `Cc1cc2c(c(SCC(=O)NCCc3ccccc3)n1)C(=O)OC2` here?
Answer: 2.57%

Question: Which “% Inhibition @ 10 uM” value does the source give for `COc1cc(/C=C/C(=O)N2CCC(C)CC2)ccc1OCc1ccccc1` here?
Answer: 5.12%

Question: Which “% Inhibition @ 10 uM” value does the source give for `Cc1c(C(=O)c2ccccc2)c2cc(O)ccc2n1-c1ccc(Br)cc1` here?
Answer: 6.66%

Question: With `CCOC(=O)C1CCCN(CC2CC3C=CC2C3)C1` (stereo not shown) as the compound, how does the “% Inhibition @ 10 uM” value read?
Answer: -0.603%

Question: For `CCN1CCCC1CNC(=O)C1CCN(c2nc3c(C)cc(C)cc3s2)CC1` (stereo not shown), which “% Inhibition @ 10 uM” value is on record?
Answer: 0.137%

Question: For `Cc1ccnc(Nc2nc3ccc(C)cc3n3cnnc23)c1`, which “% Inhibition @ 10 uM” value is on record?
Answer: -6.07%

Question: `O=C1c2ccc3c4c(ccc(c24)C(=O)N1CCOCc1ccccc1)CC3` was tested. Which “% Inhibition @ 10 uM” value did it give?
Answer: -4.82%

Question: `CCOC(=O)c1cnc(SCc2cccc(C)c2)nc1N` was tested. Which “% Inhibition @ 10 uM” value did it give?
Answer: 4.99%

Question: How did the “% Inhibition @ 10 uM” value turn out when `COc1cc2c(cc1OC)-c1c(OC)c(OC)cc3c1C(C2)N(C)CC3` (stereo not shown) was run?
Answer: 3.34%

Question: With `COCCn1c(CN(C)Cc2ccccc2)nc2c1c(=O)n(C)c(=O)n2C` as the compound, how does the “% Inhibition @ 10 uM” value read?
Answer: -5.1%

Question: With `CNC(=O)c1c(NC(=O)c2ccccc2C)sc2c1CCCCC2` as the compound, how does the “% Inhibition @ 10 uM” value read?
Answer: -2.13%

Question: How did the “% Inhibition @ 10 uM” value turn out when `Cc1ccccc1/C=C1\N=C(c2ccco2)OC1=O` was run?
Answer: 6.11%

Question: How did the “% Inhibition @ 10 uM” value turn out when `NS(=O)(=O)c1ccc(NC(=O)c2ccccc2)cc1` was run?
Answer: 1.24%

Question: How did the “% Inhibition @ 10 uM” value turn out when `O=C(Nc1nc(-c2ccccc2)cs1)c1ccco1` was run?
Answer: -8.3%

Question: Which “% Inhibition @ 10 uM” value does the source give for `CC1=C(C(=O)N2CCCCC2C)C2(CCCCCC2)OC1=O` (stereo not shown) here?
Answer: 2.01%

Question: Which “% Inhibition @ 10 uM” value does the source give for `N#CCc1ccc(NC(=O)COc2cccc(Cl)c2Cl)cc1` here?
Answer: -2.67%

Question: For `COc1ccc(-c2noc(CC3CCCCC3)n2)cc1OC`, which “% Inhibition @ 10 uM” value is on record?
Answer: -6.4%

Question: Which “% Inhibition @ 10 uM” value does the source give for `CC1CCCCN1S(=O)(=O)c1csc(C(N)=O)c1` (stereo not shown) here?
Answer: -0.822%

Question: For `Cc1ccccc1/C=C1\CN(C)C/C(=C\c2ccccc2C)C1=O`, which “% Inhibition @ 10 uM” value is on record?
Answer: 8.24%

Question: How did the “% Inhibition @ 10 uM” value turn out when `O=C(NC12CC3CC(CC(C3)C1)C2)c1ccccc1O` was run?
Answer: 6.68%

Question: How did the “% Inhibition @ 10 uM” value turn out when `O=C(CN1CCOCC1)N1c2ccccc2CCc2ccccc21` was run?
Answer: -3.92%

Question: How did the “% Inhibition @ 10 uM” value turn out when `Cc1cc[n+](CC(=O)N2CCCCC2)cc1` was run?
Answer: 3.72%

Question: How did the “% Inhibition @ 10 uM” value turn out when `CCOc1cccc(CN2C[C@@H]3C[C@H](C2)c2cccc(=O)n2C3)c1O` was run?
Answer: -0.13%

Question: For `CC(C(=O)Nc1ccccc1C#N)N1C(=O)c2ccccc2C1=O` (stereo not shown), which “% Inhibition @ 10 uM” value is on record?
Answer: -6.22%

Question: How did the “% Inhibition @ 10 uM” value turn out when `CC1CCCCN1CCNc1ccc2nnc(-c3ccc(F)cc3)n2n1` (stereo not shown) was run?
Answer: 3.45%

Question: How did the “% Inhibition @ 10 uM” value turn out when `Cc1cc2nc(COc3ccc(C(C)(C)C)cc3)cc(=O)n2o1` was run?
Answer: 4.28%

Question: For `CN(Cc1ccccc1)S(=O)(=O)c1ccc2c(c1)OCCO2`, which “% Inhibition @ 10 uM” value is on record?
Answer: -2.17%

Question: `COc1c(Cl)cnn(-c2ccc(Cl)c(C(F)(F)F)c2)c1=O` was tested. Which “% Inhibition @ 10 uM” value did it give?
Answer: -0.636%

Question: With `CCN(C(=O)COc1ccc(Br)cc1)c1ccccc1` as the compound, how does the “% Inhibition @ 10 uM” value read?
Answer: 0.795%

Question: For `Cc1ccc(-c2cc(C(=O)NCc3ccc4c(c3)OCO4)c3ccccc3n2)s1`, which “% Inhibition @ 10 uM” value is on record?
Answer: -1.1%

Question: With `CCN(CC)CCNC(=O)c1cc(OC)c(OC)c(OC)c1` as the compound, how does the “% Inhibition @ 10 uM” value read?
Answer: -2.6%

Question: With `CCOC(=O)c1cnc(SCC(=O)c2ccccc2)nc1N` as the compound, how does the “% Inhibition @ 10 uM” value read?
Answer: -3.52%

Question: Which “% Inhibition @ 10 uM” value does the source give for `COc1cc2c(c(OC)c1OC)CC(=O)N(C)CC2` here?
Answer: 1.67%

Question: Which “% Inhibition @ 10 uM” value does the source give for `COc1cc(CNCCO)cc(Cl)c1OCc1ccc(Cl)cc1` here?
Answer: -5.31%

Question: With `COc1ccc(C2C(C#N)=C(N)Oc3c2c(C)nn3-c2ccc(C)cc2)cc1` (stereo not shown) as the compound, how does the “% Inhibition @ 10 uM” value read?
Answer: -2.54%

Question: With `CC1=C(C(=O)OC2CCCCC2)C(c2cccc(F)c2)C2=C(O)CC(C)(C)CC2=N1` (stereo not shown) as the compound, how does the “% Inhibition @ 10 uM” value read?
Answer: 4.38%

Question: With `Cc1cccn2c(=O)c(/C=C(\C#N)C(N)=O)c(Oc3ccccc3F)nc12` as the compound, how does the “% Inhibition @ 10 uM” value read?
Answer: -1.43%

Question: For `CC(Oc1ccc(C(C)(C)C)cc1)C(=O)Nc1ccc2c(c1)OCCO2` (stereo not shown), which “% Inhibition @ 10 uM” value is on record?
Answer: 7.82%

Question: Which “% Inhibition @ 10 uM” value does the source give for `CC1CCCC(N2CNc3nc4ccccc4n3C2)C1C` (stereo not shown) here?
Answer: 2.1%

Question: Which “% Inhibition @ 10 uM” value does the source give for `Cn1cccc1CNCc1ccc(F)cc1` here?
Answer: -5.4%

Question: With `CC[C@H](C)[C@H](NC(=O)c1cccc(C(N)=O)c1)C(=O)N[C@@H](CCc1ccccc1)C(=O)COCc1ccccc1` as the compound, how does the “% Inhibition @ 10 uM” value read?
Answer: -9.15%
